Measurements from the supplement of paper PMC4967469.
A lower IC50 marks a more sensitive line; fits outside the tested doses are given as limits. AUC sums up the same curve from the lowest dose to the 256-fold higher top dose; values near 1 show little effect. For part of these data: An inferred top dose comes from the curve model; the source does not state it. For part of these data: Where an entry number is given, a second screen of the drug exists; the two often differ.

What was measured:
Experiment in all cases: Viability of human cancer cell lines after 72 h of drug (GDSC screen)
[1] = compound: C=CC(=O)Nc1cc(-n2c(=O)ccc3cnc4ccc(-c5cn[nH]c5)cc4c32)ccc1C [QL-X-138]; settings: top dose 10.24 µM; top dose inferred
Protocol: (§1)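 Human cancer cell lines in 384-well plates, medium with 10% serum, drug for 72 h over a 256-fold dose range (nine 2-fold or five 4-fold steps up to the top dose). Adherent lines were fixed and stained with the nucleic acid dye Syto60, suspension lines read with resazurin; signal relative to control wells, capped at 0 and 100%. One two-parameter sigmoid per drug and line, fitted in a mixed model over all curves with the slope shared within a line.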

[2] = compound: C/C=C(/C)C(=O)O[C@H]1C(C)=C2[C@H]([C@@H]1OC(=O)CCCCCCC)[C@@](C)(OC(C)=O)C[C@H](OC(=O)CCC)[C@@]1(O)[C@H]2OC(=O)[C@@]1(C)O [Thapsigargin]; settings: top dose 0.512 µM; top dose inferred
Protocol: as §1

[3] = compound: Nc1ccn([C@@H]2O[C@H](CO)[C@@H](O)[C@@H]2O)c(=O)n1 [Cytarabine]; settings: top dose 2 µM
Protocol: as §1

[4] = compound: COc1cc2ncnc(-n3nc(-c4ccccn4)nc3N)c2cc1OC [CP466722]; settings: top dose 16 µM; top dose inferred
Protocol: as §1

[5] = compound: COc1nc(C)cnc1NS(=O)(=O)c1cccnc1-c1ccc(-c2nnco2)cc1 [Zibotentan]; settings: top dose 20 µM; top dose inferred
Protocol: as §1

[6] = compound: Cc1ccc(F)c(NC(=O)Nc2ccc(-c3cccc4[nH]nc(N)c34)cc2)c1 [ABT-869]; settings: top dose 1.024 µM; top dose inferred
Protocol: as §1

[7] = compound: Cc1cnc(-c2cnc(NCCNc3ccc(C#N)cn3)nc2-c2ccc(Cl)cc2Cl)[nH]1 [CHIR-99021]
Protocol: as §1

[8] = compound: COc1cc(N2CCC(O)CC2)ccc1Nc1cc(Nc2ccccc2S(=O)(=O)C(C)C)c2cc[nH]c2n1 [MPS-1-IN-1]; settings: top dose 20 µM; top dose inferred
Protocol: as §1

[9] = compound: C[C@]1(c2nc3c(C(N)=O)cccc3[nH]2)CCCN1 [ABT-888]; settings: top dose 5 µM; top dose inferred
Protocol: as §1

[10] = compound: O=c1cc(-c2cccc3c2Sc2ccccc2S3)oc(N2CCOCC2)c1 [KU-55933]; settings: top dose 10 µM
Protocol: as §1

[11] = compound: CCn1c(-c2nonc2N)nc2cnc(Oc3cccc(NC(=O)c4ccc(OCCN5CCOCC5)cc4)c3)cc21 [GSK269962A]; settings: top dose 5 µM; screen: GDSC drug entry 1192; top dose inferred
Protocol: as §1

[12] = compound: COc1cc(O)c2c(c1)/C=C/C[C@H](O)[C@H](O)C(=O)/C=C\C[C@H](C)OC2=O [(5Z)-7-Oxozeaenol]; settings: top dose 10 µM; top dose inferred
Protocol: as §1

[13] = top dose 2.56 µM, screen: GDSC drug entry 154
[14] = top dose 10 µM, screen: GDSC drug entry 1241, top dose inferred

Cell Line	AUC [1]	IC50 [1] [µM]	AUC [2]	IC50 [2] [µM]	AUC [3]	IC50 [3] [µM]	AUC [4]	IC50 [4] [µM]	AUC [5]	IC50 [5] [µM]	AUC [6]	IC50 [6] [µM]	AUC [7, 13]	IC50 [7, 13] [µM]	AUC [7, 14]	IC50 [7, 14] [µM]	AUC [8]	IC50 [8] [µM]	AUC [9]	IC50 [9] [µM]	AUC [10]	IC50 [10] [µM]	AUC [11]	IC50 [11] [µM]	AUC [12]	IC50 [12] [µM]
451Lu (melanoma, adherent)	0.794	4.49	0.179	0.00366	0.75	0.631	0.887	> 16	0.987	> 20	0.985	> 1.02	0.984	> 2.56	0.972	> 10	0.967	> 20	0.987	> 5	0.955	> 10	0.988	> 5	0.104	< 0.0391
639-V (bladder, adherent)	0.881	7.96	0.083	< 0.002	0.815	0.901	0.941	> 16	0.992	> 20	0.985	> 1.02	0.99	> 2.56	0.979	> 10	0.988	> 20	0.956	> 5	0.865	6.75	0.92	> 5	0.71	2.2
647-V (bladder, adherent)	0.654	1.71	0.322	0.0101	0.806	1.02	0.803	7.97	0.987	> 20	0.985	> 1.02	0.987	> 2.56	0.983	> 10	0.947	> 20	0.984	> 5	0.922	> 10	0.893	> 5	0.663	1.78
8305C (thyroid, adherent)	0.885	> 10.2	0.261	0.00528	0.875	> 2	0.909	> 16	0.978	> 20	0.974	> 1.02	0.929	> 2.56	0.97	> 10	0.935	> 20	0.982	> 5	0.887	> 10	0.942	> 5	0.575	1.07
8505C (thyroid, adherent)	0.667	1.92	0.057	< 0.002	0.821	1.25	0.876	> 16	0.976	> 20	0.985	> 1.02	0.938	> 2.56	0.861	9.3	0.927	> 20	0.974	> 5	0.944	> 10	0.976	> 5	0.635	1.51
ASH-3 (thyroid, adherent)	0.86	8.57	0.069	< 0.002	0.652	0.33	0.911	> 16	0.988	> 20	0.983	> 1.02	0.872	2.43	0.919	> 10	0.988	> 20	0.988	> 5	0.957	> 10	0.78	2.06	0.549	0.851
BHT-101 (thyroid, adherent)	0.909	> 10.2	0.381	0.0149	0.359	0.0503	0.782	6.89	0.985	> 20	0.976	> 1.02	0.983	> 2.56	0.742	3.16	0.864	18.5	0.973	> 5	0.903	> 10	0.814	2.83	0.121	< 0.0391
BICR10 (head and neck, adherent)	0.904	> 10.2	0.894	> 0.512	0.461	0.096	0.913	> 16	0.985	> 20	0.973	> 1.02	0.877	> 2.56	0.928	> 10	0.985	> 20	0.978	> 5	0.931	> 10	0.899	> 5	0.808	6.18
CFPAC-1 (pancreas, adherent)	0.702	2.6	0.386	0.0149	0.739	0.676	0.888	> 16	0.983	> 20	0.983	> 1.02					0.954	> 20	0.959	> 5	0.981	> 10			0.699	2.48
H3255 (lung adenocarcinoma, adherent)	0.665	2.02	0.534	0.0402	0.973	> 2	0.928	> 16	0.982	> 20	0.98	> 1.02					0.974	> 20	0.984	> 5	0.963	> 10	0.877	> 5	0.813	6.72
HT-1197 (bladder, adherent)	0.957	> 10.2	0.781	0.254	0.931	> 2			0.985	> 20	0.983	> 1.02	0.981	> 2.56	0.943	> 10	0.953	> 20	0.984	> 5	0.971	> 10	0.911	> 5	0.702	2.59
JHH-4 (liver, adherent)	0.883	> 10.2	0.36	0.0131	0.93	> 2			0.987	> 20	0.981	> 1.02	0.984	> 2.56	0.886	> 10	0.946	> 20	0.985	> 5	0.902	> 10	0.935	> 5	0.818	5.64
KYSE-410 (oesophagus, adherent)	0.769	4.11	0.112	< 0.002	0.734	0.611	0.889	> 16	0.985	> 20	0.979	> 1.02	0.973	> 2.56			0.92	> 20	0.967	> 5	0.965	> 10	0.694	1.14		
MKN28 (stomach, adherent)	0.871	9.99	0.223	0.00488	0.823	1.22	0.951	> 16	0.982	> 20	0.983	> 1.02	0.924	> 2.56			0.929	> 20	0.987	> 5	0.962	> 10	0.974	> 5		
NCI-H727 (lung carcinoid, adherent)	0.847	> 10.2	0.313	0.00675	0.955	> 2	0.908	> 16			0.965	> 1.02					0.924	> 20	0.97	> 5	0.947	> 10	0.944	> 5	0.806	> 10
NCI-H838 (lung adenocarcinoma, adherent)	0.979	> 10.2	0.34	0.0113	0.714	0.519	0.967	> 16			0.984	> 1.02					0.957	> 20	0.987	> 5	0.92	> 10	0.827	3.24	0.758	3.59
NCI-H1563 (lung adenocarcinoma, adherent)	0.693	2.49	0.735	0.173	0.796	1.14	0.71	4.44	0.983	> 20	0.977	> 1.02					0.89	> 20	0.984	> 5	0.955	> 10	0.97	> 5	0.742	3.56
NCI-H1703 (lung adenocarcinoma, adherent)	0.627	1.55	0.362	0.0122	0.45	0.0887	0.713	4.64	0.981	> 20	0.742	0.374					0.922	> 20	0.982	> 5	0.976	> 10	0.853	> 5	0.485	0.563
NCI-H2342 (lung adenocarcinoma, adherent)	0.914	> 10.2	0.055	< 0.002	0.927	> 2	0.913	> 16	0.977	> 20	0.986	> 1.02					0.981	> 20	0.964	> 5	0.986	> 10	0.919	> 5	0.822	6.65
PFSK-1 (medulloblastoma, adherent)	0.627	1.46	0.39	0.0156	0.818	1.22	0.789	7.54	0.985	> 20	0.978	> 1.02	0.967	> 2.56			0.907	> 20	0.919	> 5	0.952	> 10	0.879	> 5		
SK-MES-1 (lung squamous cell carcinoma, adherent)	0.74	3.33	0.037	< 0.002	0.762	0.774	0.708	4.11	0.985	> 20	0.976	> 1.02					0.979	> 20	0.978	> 5	0.944	> 10	0.95	> 5	0.823	6.61
SW626 (ovary, adherent)	0.694	2.5	0.411	0.0174	0.881	> 2	0.785	8.27	0.978	> 20	0.973	> 1.02	0.98	> 2.56	0.978	> 10			0.983	> 5	0.978	> 10	0.897	> 5	0.585	1.12
